Experimental data published in paper PMC4336329 (PLoS ONE, 2015).
In all, about 310,000 compounds went through this assay and about 14,000 (4.5%) showed an effect of 50% or more. The effect is printed as a negative number. The list shows a part of the results.

target: human ether-à-go-go-related gene (hERG) potassium channel (human, UniProt Q12809); test: primary screen, population patch clamp on CHO cells stably expressing hERG
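Further: peak tail current of the secondary pulse compared with the same well before compound.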

Chain of human ether-à-go-go-related gene (hERG) potassium channel (Q12809 whole entry, looked up): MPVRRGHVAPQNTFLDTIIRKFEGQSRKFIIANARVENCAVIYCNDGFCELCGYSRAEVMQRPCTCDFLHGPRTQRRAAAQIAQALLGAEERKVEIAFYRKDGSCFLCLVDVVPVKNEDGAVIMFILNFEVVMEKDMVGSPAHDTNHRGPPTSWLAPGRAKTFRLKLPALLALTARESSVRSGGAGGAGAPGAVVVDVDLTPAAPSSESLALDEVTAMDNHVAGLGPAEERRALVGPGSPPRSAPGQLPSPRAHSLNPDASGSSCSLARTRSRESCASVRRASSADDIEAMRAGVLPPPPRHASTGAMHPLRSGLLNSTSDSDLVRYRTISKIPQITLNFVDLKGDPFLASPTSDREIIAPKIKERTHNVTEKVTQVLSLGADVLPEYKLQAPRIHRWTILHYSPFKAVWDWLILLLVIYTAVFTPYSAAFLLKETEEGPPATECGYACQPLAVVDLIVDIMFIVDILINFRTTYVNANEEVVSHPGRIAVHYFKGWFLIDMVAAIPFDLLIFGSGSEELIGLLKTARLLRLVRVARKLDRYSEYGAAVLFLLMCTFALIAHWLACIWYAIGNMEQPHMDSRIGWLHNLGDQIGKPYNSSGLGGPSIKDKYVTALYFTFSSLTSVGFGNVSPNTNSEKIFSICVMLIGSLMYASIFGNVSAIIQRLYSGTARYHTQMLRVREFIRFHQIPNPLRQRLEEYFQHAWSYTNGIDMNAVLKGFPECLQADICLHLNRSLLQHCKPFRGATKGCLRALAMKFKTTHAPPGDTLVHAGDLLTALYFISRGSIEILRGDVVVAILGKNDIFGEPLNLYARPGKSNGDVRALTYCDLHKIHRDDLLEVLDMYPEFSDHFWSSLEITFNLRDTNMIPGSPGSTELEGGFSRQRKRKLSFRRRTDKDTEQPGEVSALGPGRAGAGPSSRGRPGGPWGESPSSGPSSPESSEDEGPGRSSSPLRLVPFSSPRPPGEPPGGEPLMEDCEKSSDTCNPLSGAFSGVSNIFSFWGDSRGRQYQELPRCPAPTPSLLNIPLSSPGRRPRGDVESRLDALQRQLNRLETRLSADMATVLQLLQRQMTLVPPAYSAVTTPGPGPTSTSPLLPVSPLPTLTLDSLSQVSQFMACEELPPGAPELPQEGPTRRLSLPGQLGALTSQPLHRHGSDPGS

Row | SMILES | hERG current change (%, negative = inhibition) at 10uM [%]
1 | COc1ccc(-n2c(SCC(=O)Nc3cc(C)on3)nc3c(c2=O)SCC3)cc1 | 12.1
2 | Cc1ccc2nc3c(cc2c1)CC1(C(=O)N(C)C(=O)N(C)C1=O)C1COCCN31 (stereo not drawn) | -24.9
3 | O=C(Nc1ccccc1)c1c(F)cccc1F | 6.44
4 | CCCNC(=S)N1CCC(C(=O)c2ccc(OC)cc2)CC1 | -17.6
5 | CCOC(=O)C1=C(C)NC(=O)NC1c1ccc(OC(=O)c2ccco2)c(OC)c1 (stereo not drawn) | 4.37
6 | CCOc1ccc(-n2c(C)nc3cc(C(=O)NCc4ccco4)ccc32)cc1 | -15.2
7 | Cc1ccc(S(=O)(=O)N(c2ccccc2)C2CCS(=O)(=O)C2)cc1 (stereo not drawn) | 4.59
8 | COc1ccc(CCNC(=O)Oc2ccccc2)cc1OC | 14.1
9 | COCCn1c(=NC(=O)C(C)(C)C)sc2cc([N+](=O)[O-])ccc21 | 2.96
10 | Cc1cc(C)c(C(N)=O)c(Nc2cccc(Cl)c2C)n1 | -5.35
11 | CCN1CCN(Cc2ccc(NC(=O)c3cc(NC(=O)c4cnn(-c5ccccc5)c4N)cc(OC)c3)cc2C(F)(F)F)CC1 | 3.56
12 | CN1CCN(C(=O)c2ccc(-c3cccs3)s2)CC1 | -14.1
13 | CCc1ccccc1NC(=O)COc1ccc(N2CC(C(N)=O)CC2=O)cc1 (stereo not drawn) | 18.9
14 | Cc1ccc2cc(C#N)c(N3CCCN(C(=O)c4cnccn4)CC3)nc2c1 | -42.4
15 | Cc1ccc(-c2ccc(=O)n(CC(=O)NCCC(C)C)n2)cc1 | -3.5
16 | O=C(NC1CCCCC1)c1cccc(COCC(F)(F)F)c1 | 12.3
17 | COc1ccc(CCNC(=O)CSc2nncn2N)cc1OC | 8.77
18 | CCc1ccc(NS(=O)(=O)c2cccs2)cc1 | -12.8
19 | Cc1ncoc1C(=O)Nc1ncc([N+](=O)[O-])s1 | -12.9
20 | Cn1c(N)c(C(=O)COC(=O)C2CCCC2)c(=O)n(C)c1=O | -20.6
21 | CCN(CC)S(=O)(=O)c1ccc(N/N=C(\C)c2ccc(OC)cc2O)nc1 | 17.9
22 | CCOC(=O)C1(CC2CCCCO2)CCN(Cc2nc(C(C)C)cs2)CC1 (stereo not drawn) | -5.24

Row | SMILES | hERG current change (%, negative = inhibition) at 10uM [%]
23 | CCCCN(c1ccccc1)c1ncnc2nc[nH]c12 | -21.9
24 | CCCCCOc1ccc(C(C)(O)C(CN2CCOCC2)c2ccccc2)cc1 (stereo not drawn) | 1.59
25 | O=C(N/C=C\c1ccccc1)NCc1ccc(Cl)cc1Cl | 8.17
26 | CC(C)(C)c1cc(CSC(=S)NC2CCS(=O)(=O)C2)c(Br)c(C(C)(C)C)c1 (stereo not drawn) | 2.38
27 | CCOC(=O)N1CCN(C(=O)c2ccc(Cn3c(=S)[nH]c4cc5c(cc4c3=O)OCO5)cc2)CC1 | 0.805
28 | C=CCn1c(SCc2nc3sc(C(=O)O)c(C)c3c(=O)[nH]2)nnc1-c1ccccc1 | 12.1
29 | COc1ccc(OC)c2[nH]c(=O)c(CCNC(=O)c3ccc(Br)o3)cc12 | -18.3
30 | COc1ccc(CCNC(=O)c2ccc(=O)[nH]c2)cc1 | 12.8
31 | O=c1cc2c(nn1Cc1ccccc1)-c1ccccc1CC2 | -17.6
32 | O=C(Nc1cccc(Cl)c1)N1C[C@H]2C[C@@H](C1)c1cccc(=O)n1C2 | 2.8
33 | Clc1ccc(Cn2ncc3c(N4CCCCC4)ncnc32)c(Cl)c1 | 14.9
34 | Cc1ccc2cc(CN(C(=O)c3cccs3)c3ccccc3)c(=O)[nH]c2c1 | 21.4
35 | Cc1ccc(NC(=O)CN2C(=O)S/C(=C\c3cc(C)n(C)c3C)C2=O)cc1 | -1.56
36 | CCOC(=O)C(=O)C1=C(N2CCOCC2)/C(=C\c2ccc(F)cc2)CC1 | -1.49
37 | O=C(Nc1c(C(=O)N2CCOCC2)cnn1-c1ccccc1)c1ccc(F)cc1 | 13.8
38 | CCOC(=O)C1=C(C)NC(C)=C(C(=O)OCC)C1c1cccs1 | 14.4
39 | C=CCNS(=O)(=O)CC12CCC(CC1=O)C2(C)C (stereo not drawn) | 7.32
40 | COc1cccc(-n2c(=O)c3sccc3n(CC(=O)NC3CCCC3)c2=O)c1 | 17.9
41 | CCCOc1ccc(N2C(=O)CC(N(CCc3ccc(S(N)(=O)=O)cc3)C(C)=O)C2=O)cc1 (stereo not drawn) | 14.4
42 | O=C(CCc1nnc(CCCCc2ccccc2)o1)N1CCCCC1CCO (stereo not drawn) | -1.73
43 | CCCCCCC1CC(=O)NC(=O)N1 (stereo not drawn) | 12.1
44 | O=C(O)COc1ccccc1/C=N/NC(=O)CSc1nnc(SCc2ccc(Cl)cc2)s1 | 7.23

Row | SMILES | hERG current change (%, negative = inhibition) at 10uM [%]
45 | COc1ccc(-c2[nH]ncc2CN2CCC(c3ccncc3)CC2)cc1F | -62.7
46 | COC(=O)c1ccc(/C=N\N2CCN(Cc3ccc(C)cc3)CC2)cc1 | 9.51
47 | COc1ccc(-[n+]2c(-c3ccccc3)cc(-c3ccc(C)cc3)cc2-c2ccccc2)cc1.[O-][Cl+3]([O-])([O-])[O-] | -77.7
48 | CCc1ccc(-c2cc(C(=O)O)c3ccccc3n2)s1 | 16.9
49 | Cc1ccc2c(c1)N(C(=O)CCC(=O)Nc1ccccc1Cl)CC(C)O2 (stereo not drawn) | -27
50 | Cc1ccc(CN2C(=O)CCC2C(=O)NC2CC2)cc1 (stereo not drawn) | 10.8
51 | NS(=O)(=O)c1ccc(N2C(=O)C(=O)/C(=C(/O)c3ccccc3)C2c2ccc(Cl)cc2)cc1 (stereo not drawn) | 18.1
52 | COc1ccc(C(=O)NCCCOC(=O)c2ccc(OC)cc2)cc1 | -14.6
53 | Cc1cc2oc(=O)cc(CN3CCN(Cc4ccc5c(c4)OCO5)CC3)c2cc1C | -17.2
54 | COc1cc(NC(=O)c2ccccc2OCc2ccccc2)cc(OC)c1OC | 23.9
55 | CCN1CCN(Cc2ccccc2NC(=O)Nc2ccc(C)cc2)CC1 | -0.992
56 | Cn1cc(CN2CCN(c3ncccn3)CC2)c(-c2cccc(Cl)c2)n1 | -20.5
57 | COc1ccc(N2C(=O)CN(Cc3cc(OC)c(OC)c(OC)c3)C2=S)cc1 | 16.2
58 | Cc1cccc(C(=O)NCC(=O)N2CCN(S(=O)(=O)c3cc(C)ccc3C)CC2)c1 | -19.4
59 | CCC(=O)NC(c1cccs1)c1cc(Cl)c2ccccc2c1O (stereo not drawn) | -20.9
60 | Cc1nnnn1CC(=O)Nc1cccc([N+](=O)[O-])c1 | 18.6
61 | CCn1c(=O)c2cc(C(=O)N(C)c3cc(C)ccc3OC)sc2c2ccccc21 | 6.98
62 | CC(=O)c1ccc(Nc2c([N+](=O)[O-])ccc3nonc23)cc1 | 5.59
63 | Cc1cccc(OCCNC(=S)NC(=O)c2cccnc2)c1 | 14.4
64 | Brc1ccc(-c2csc(N/N=C/c3ccc4c(c3)OCO4)n2)cc1 | 21.3
65 | CCc1nnc(NC(=O)c2ccc(Cl)c(S(=O)(=O)N3CCc4ccccc4C3)c2)s1 | 5.89
66 | COc1ccc(CCn2c(N3CCOCC3)nc3c2c(=O)[nH]c(=O)n3C)cc1 | -15.5

Row | SMILES | hERG current change (%, negative = inhibition) at 10uM [%]
67 | O=C(CN1CCCCC1)N1c2ccccc2Oc2ccccc21 | -8.22
68 | O=C(O)CCNc1ccc2c(c1)OCCO2 | 1.69
69 | CCc1ccccc1NC(=O)CN(C)S(=O)(=O)c1ccc2c(c1)c(=O)n(C)c(=O)n2C | -1.01
70 | O=c1c2ccccc2oc2cc(-c3ccc4[nH]ccc4c3)ccc12 | 11.4
71 | C#CCOCCOCCOCCNc1nc(N2CCN(C(=O)CCCCCCCCCCNC(=O)[C@@H]([C@H](C)O)n3cc(C)nn3)CC2)nc(N2CCN(C(=O)CCCCCCCCCCNC(=O)[C@@H]([C@H](C)O)n3cc(C)nn3)CC2)n1 | 0.635
72 | O=C(NCc1ccccc1)c1ccc(-c2ccccc2C(F)(F)F)o1 | -2.8
73 | Cn1ccnc1SCC(=O)c1ccc(Br)cc1 | -18.2
74 | Cc1cc(SCC(=O)OCC(=O)NCc2ccc3c(c2)OCO3)c(C)cc1Br | 2.21
75 | CCOC(=O)CCNC(=O)N1CCCC(CNS(=O)(=O)Cc2ccccc2)C1 (stereo not drawn) | 4.2
76 | COc1ccc(C(=O)C(C)(C)NO)cc1.Cl | 5.05
77 | CNCCc1c(C)n[nH]c1C.Cl | 14.6
78 | c1ccc2[nH]c(-c3nc4ccccc4[nH]3)nc2c1 | 10.1
79 | Cc1ccc(CN(C)C(=O)COC(=O)CSc2ccc([N+](=O)[O-])cc2)cc1 | -6.23
80 | Cc1nc2ccc(CCO)cc2s1 | 15.8
81 | CC(=O)Oc1cccc(N2C(=O)c3ccccc3C2=O)c1 | 13.2
82 | CC(=O)c1c(OC(=O)c2ccccc2)c2ccccc2n1C | 9.18
83 | COc1ccc(N2CCN(C(=O)c3cc([N+](=O)[O-])ccc3N3CCN(CCO)CC3)CC2)cc1 | -24.6
84 | COc1ccc(CC(=O)N(C)CC(=O)Nc2ccccc2C(F)(F)F)cc1S(=O)(=O)N1CCOCC1 | 5.49
85 | Cn1c(=O)n(Cc2ccccc2)c(=O)c2c1nc1n2CCS1 | -1.93
86 | O=C(COc1ccc2ccccc2c1Br)Nc1cccnc1 | 20.1
87 | Cc1ccc(C)c(NS(=O)(=O)c2cc(C(=O)NCc3ccncc3)ccc2C)c1 | -45.6
